Reference: PubChem BioAssay AID686978 (National Center for Advancing Translational Sciences (NCATS), 2013)
In all, about 420,000 compounds went through this assay and about 64,000 (15%) were called active. This list was built around the results that the source calls inconclusive (neither active nor inactive); the mix of calls is not that of the screen. Calls follow the shape of the dose curve; as a rule, active = well fitted inhibition curve with a large enough effect; inconclusive = small, poorly fitted or top-dose-only effect; inactive = flat fitted curve, though single readings scatter. Potencies of inconclusive entries are left out as doubtful fits.

Test: qHTS for Inhibitors of human tyrosyl-DNA phosphodiesterase 1 (TDP1): qHTS in cells in absence of CPT; also: nearly all actives have a fitted effect of over 55% in size
Conditions: DT40 Tdp1-/- hTDP1 cells, no CPT, ATP luminescence, 48 h; activity change, negative = growth inhibition: at 46.2 µM (top of the series) unless noted
Outline: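 No-CPT arm: Tdp1-/-;hTDP1 DT40 cells (400/well) plus compounds, incubated ≥48 hr at 37 °C. Readout CellTiter-Glo luminescence.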
% is scaled to controls: 0 for no effect and ±100 for the full control effect; potency is read from the fitted curve at half-maximal effect; tags tell the direction and shape of the fitted curve.

**Q.** For `CCc1ccc(-c2cc(C(F)(F)F)n3nc(C(=O)Nc4c(C)nn(Cc5ccc(F)cc5)c4C)cc3n2)s1`, which Potency is on record?
**A.** active: 23.1 µM

**Q.** Which “activity change, negative = growth inhibition” value does the source give for `COc1ccc(NS(=O)(=O)c2cccc(C(=O)N/N=C(\C)c3cccnc3)c2)cc1` here?
**A.** inactive: -7.87%

**Q.** With `CC(C)C(c1nnnn1C1CCCCC1)N1CCc2ccccc2C1` (centres undefined) as the molecule, how does the Potency read?
**A.** inconclusive [inhibitor, single point]

**Q.** For `O=C(NC12CC3CC(CC(C3)C1)C2)N1CCCC(CO)C1` (centres undefined), which “activity change, negative = growth inhibition” value is on record?
**A.** inactive: -5.39%

**Q.** With `CN1C(=O)CSc2ccc(NC(=O)NCc3ccccc3)cc21` as the molecule, how does the Potency read?
**A.** inconclusive [inhibitor, partial curve]

**Q.** Which “activity change, negative = growth inhibition” value does the source give for `Fc1ccc(CN2CCC(Cc3ccccc3)CC2)cc1F` here?
**A.** inactive: -25.5%

**Q.** With `COc1ccc(-n2nc(C(=O)NCC(=O)NCCCN3CC(C)CC(C)C3)c3ccccc3c2=O)cc1Cl` (centres undefined) as the molecule, how does the Potency read?
**A.** inconclusive [inhibitor, single point]

**Q.** For `COc1cccc(N2CCN(C(=O)CN(C)S(=O)(=O)c3ccc4c(c3)c(=O)n(C)c(=O)n4C)CC2)c1`, which Potency is on record?
**A.** inconclusive [inhibitor, single point]

**Q.** Which Potency does the source give for `CCC(Sc1nc2cc3c(cc2c(=O)n1Cc1ccco1)OCO3)C(=O)Nc1cccc(OC)c1` (centres undefined) here?
**A.** inconclusive [inhibitor, partial curve]

**Q.** For `Cc1cccc(CSc2nc3ccncc3n2CC(=O)Nc2cc(C)cc(C)c2)c1`, which Potency is on record?
**A.** inconclusive [inhibitor, single point]

**Q.** Which Potency does the source give for `CCOc1ccc(/C=N/Nc2nc(N3CCCC3)nc(N3CCCC3)n2)cc1OC` here?
**A.** inconclusive [inhibitor, single point]

**Q.** Which Potency does the source give for `Cc1cc(OCCCSc2nc(-c3ccc(C(C)(C)C)cc3)nc3cc(=O)[nH]n23)ccc1Cl` here?
**A.** inconclusive [inhibitor, single point]

**Q.** With `Cc1ccc(C(C(=O)NCc2ccccc2)N(C(=O)c2csnn2)C2CC2)cc1` (centres undefined) as the molecule, how does the Potency read?
**A.** inconclusive [inhibitor, single point]

**Q.** Which Potency does the source give for `CCc1ccc(NC(=O)CSc2ccc3nnc(CCNS(=O)(=O)c4ccc(OC)cc4)n3n2)cc1` here?
**A.** inconclusive [inhibitor, single point]

**Q.** For `Cc1ccccc1NC(=O)c1ccccc1NC(=O)c1ccccc1Cl`, which Potency is on record?
**A.** inconclusive [inhibitor, single point]

**Q.** With `Cc1c(C)c2ccc(OC(C)C(=O)NCCCn3ccnc3)c(C)c2oc1=O` (centres undefined) as the molecule, how does the “activity change, negative = growth inhibition” value read?
**A.** inactive: 3.1%

**Q.** For `CCOC(=O)c1cnc(-n2nc(C)cc2C)[nH]c1=O`, which “activity change, negative = growth inhibition” value is on record?
**A.** inactive: 9.38%

**Q.** With `Cc1cc(C)c(C)c(C(=O)C(=O)c2ccccc2)c1` as the molecule, how does the “activity change, negative = growth inhibition” value read?
**A.** inactive: 0.546%

**Q.** For `COc1cccc(NC(=O)CN(C)C(=O)/C=C/c2cn(Cc3ccccc3)nc2-c2cccnc2)c1`, which Potency is on record?
**A.** inconclusive [inhibitor, single point]

**Q.** With `O=S(=O)(Nc1nc2c(s1)CCCC2)c1ccc(Br)cc1` as the molecule, how does the Potency read?
**A.** inconclusive [inhibitor, single point]

**Q.** For `Oc1ccc(F)c(CN2CCN(c3ncc(Cc4ccccc4)cn3)CC2)c1`, which Potency is on record?
**A.** active: 25.9 µM

**Q.** For `Cc1ccc2[nH]c(=O)c3cc(C(=O)NCC4CCCO4)sc3c2c1` (centres undefined), which Potency is on record?
**A.** inconclusive [inhibitor, single point]

**Q.** With `CC(=O)N1N=C(c2ccccc2)OC12CCCC2` as the molecule, how does the “activity change, negative = growth inhibition” value read?
**A.** inactive: -9.89%

**Q.** For `OC[C@@H]1CN(Cc2ccc(-c3ccccc3)cc2)C[C@H](n2cnc3c(NCc4ccco4)ncnc32)O1`, which Potency is on record?
**A.** active: 9.2 µM

**Q.** For `COc1cc(Cl)c(NC(=O)C2CCN(S(=O)(=O)c3c(C)noc3/C=C/c3ccccc3F)CC2)c(OC)c1`, which “activity change, negative = growth inhibition” value is on record?
**A.** inactive: -1.74%

**Q.** For `O=C(COC(=O)c1cccc2ccccc12)NCCCc1ccccc1`, which Potency is on record?
**A.** inactive

**Q.** For `COc1ccc(-c2noc(CN(C)S(=O)(=O)c3ccccc3)n2)cc1OC`, which Potency is on record?
**A.** inconclusive [inhibitor, partial curve, poor fit]

**Q.** Which Potency does the source give for `CCOc1ccc(NC(=O)c2ccc3nccnc3c2)cc1` here?
**A.** inconclusive [inhibitor, single point]

**Q.** With `CC1=C(C(=O)N(C(C)C)C(C)C)CC(CC(=O)NC(c2ccccc2)c2ccccc2)C(=O)N1Cc1ccc(F)cc1` (centres undefined) as the molecule, how does the Potency read?
**A.** inconclusive [inhibitor, single point]

**Q.** For `Cc1nc2ccc(S(=O)(=O)CCC(=O)Nc3ccc(F)cc3C)cc2s1`, which Potency is on record?
**A.** inconclusive [inhibitor, single point]

**Q.** For `CCNC(=O)Nc1ccc(-n2nc(C)c(C(=O)OCC)c2C)nc1`, which Potency is on record?
**A.** inconclusive [inhibitor, single point]

**Q.** For `CC(=O)Nc1ccc(SC[C@H](C)CN2CC[C@H](O)CCC2=O)cc1`, which Potency is on record?
**A.** inactive

**Q.** For `CNS(=O)(=O)c1cn(CC(=O)Nc2ccc(C)cc2C)cc1S(=O)(=O)NC`, which “activity change, negative = growth inhibition” value is on record?
**A.** inactive: -3.73%

**Q.** Which Potency does the source give for `CCOP(=O)(OCC)C(NC(=O)Nc1cccc(Cl)c1)c1ccccc1` (centres undefined) here?
**A.** inconclusive [inhibitor, single point]

**Q.** For `NC(=S)c1ccc[n+]([O-])c1`, which “activity change, negative = growth inhibition” value is on record?
**A.** inactive: -15.8%

**Q.** For `CCOc1c2ccc(C(=O)NCc3ccc(C)cc3)cc2nn1CCOC`, which Potency is on record?
**A.** inconclusive [inhibitor, single point]

**Q.** For `Cc1ccc(S(=O)(=O)N2CCCC2C(=O)NCc2ccccc2F)cc1` (centres undefined), which “activity change, negative = growth inhibition” value is on record?
**A.** inactive: 8.48%

**Q.** For `O=C(c1cccc(F)c1)N1CCC2(CCCN(c3ccccn3)C2)CC1`, which Potency is on record?
**A.** inconclusive [inhibitor, single point]

**Q.** With `COc1ccc(NC(=O)c2cc(-c3cc(Cl)ccc3OC)n[nH]2)c(OC)c1` as the molecule, how does the Potency read?
**A.** inconclusive [inhibitor, single point]

**Q.** Which Potency does the source give for `COc1ccc(C(=O)CNc2ccc3ccccc3c2)cc1` here?
**A.** inconclusive [inhibitor, single point]

**Q.** With `Cc1ccc(C2=Nc3ccccc3NC(c3ccncc3)=N2)cc1` as the molecule, how does the Potency read?
**A.** active: 13 µM

**Q.** For `CC(=O)c1c(C)[nH]c(C(=O)Nc2cc(S(=O)(=O)N(C)C)ccc2C)c1C`, which Potency is on record?
**A.** inconclusive [inhibitor, single point]

**Q.** For `Cc1nn(-c2ccccc2)c(Cl)c1/C=C1/C(=N)N2N=C(C(C)C)SC2=NC1=O`, which Potency is on record?
**A.** inconclusive [inhibitor, single point]

**Q.** For `C[C@@H]1CCCCO[C@H](CN(C)Cc2ccc(C(=O)O)cc2)[C@@H](C)CN([C@H](C)CO)C(=O)c2cc(NC(=O)CCC(F)(F)F)ccc2O1`, which “activity change, negative = growth inhibition” value is on record?
**A.** inactive: -28.4%

**Q.** With `CCN(CC)CCCNC(=O)c1cc2c(=O)n(C)c3ccccc3c2n1C` as the molecule, how does the Potency read?
**A.** inconclusive [inhibitor, single point]

**Q.** For `COc1ccc(C(=O)Cc2cc(OC)c(OC)cc2C(=O)c2ccccc2F)cc1OC`, which Potency is on record?
**A.** inconclusive [inhibitor, partial curve, poor fit]

**Q.** Which Potency does the source give for `Cc1ccc(-c2cn3c(n2)sc2cc(C(=O)NCCCc4ccccc4)ccc23)cc1` here?
**A.** active: 8.2 µM

**Q.** Which Potency does the source give for `N#Cc1cccnc1N1CCN(C(=O)c2cccc3c2C(=O)c2ccc(-c4ccc(F)cc4OCc4ccccc4)cc2S3(=O)=O)CC1` here?
**A.** inconclusive [inhibitor, partial curve]

**Q.** With `C[C@@H]1CN([C@H](C)CO)C(=O)CCCn2nncc2CO[C@@H]1CN(C)C(=O)NC1CCCCC1` as the molecule, how does the “activity change, negative = growth inhibition” value read?
**A.** inactive: -0.11%

**Q.** With `CC(C)Sc1nnc(NC(=O)C2CC2)s1` as the molecule, how does the Potency read?
**A.** inconclusive [inhibitor, single point]

**Q.** For `COC(=O)C1=C(C)NC(=O)CC1c1ccc(C(=O)OC)cc1` (centres undefined), which “activity change, negative = growth inhibition” value is on record?
**A.** inactive: 4.13%

**Q.** With `O=C(CCN1C(=O)C2CCCCC2C1=O)Nc1ccc(Br)cc1F` (centres undefined) as the molecule, how does the “activity change, negative = growth inhibition” value read?
**A.** inactive: -24.7%

**Q.** Which “activity change, negative = growth inhibition” value does the source give for `O=C1OC(c2ccccc2)=N/C1=C\C=C\c1ccco1` here?
**A.** inactive: -12.4%

**Q.** Which Potency does the source give for `Cc1ccccc1Cn1cc(NC(=O)c2cc3nc(-c4ccco4)cc(C(F)(F)F)n3n2)cn1` here?
**A.** inconclusive [inhibitor, single point]

**Q.** With `COc1ccccc1OCCC(=O)Nc1cccc(S(=O)(=O)N2CCCCC2)c1` as the molecule, how does the Potency read?
**A.** inconclusive [inhibitor, single point]

**Q.** Which Potency does the source give for `CCCN(CC(=O)Nc1ccccc1OC)C(=O)c1cccc(S(=O)(=O)Nc2ccc(OC)cc2)c1` here?
**A.** inconclusive [inhibitor, single point]

**Q.** Which “activity change, negative = growth inhibition” value does the source give for `COc1ccc(NS(=O)(=O)c2ccc(NC(=O)N3CCCC3)cc2)cc1` here?
**A.** inactive: -24.3%

**Q.** For `COc1cccc(CCc2nc3ccccc3c(=O)n2N)c1`, which Potency is on record?
**A.** active: 20.6 µM

**Q.** For `Cc1cccc(-c2oc3ccccc3c2C#CCCO)c1`, which Potency is on record?
**A.** inconclusive [inhibitor, single point]

**Q.** For `O=[N+]([O-])c1ccc(N2CCN(Cc3ccccc3)CC2)s1`, which Potency is on record?
**A.** inconclusive [inhibitor, single point]

**Q.** Which Potency does the source give for `CCN(CC)S(=O)(=O)c1ccc(F)c(C(=O)NCCC(C)C)c1` here?
**A.** inconclusive [inhibitor, partial curve]

**Q.** With `CN(C1CCCCC1)S(=O)(=O)c1ccc(S(=O)(=O)N2CCN(C(=O)c3ccccc3F)CC2)cc1` as the molecule, how does the Potency read?
**A.** inconclusive [inhibitor, single point]

**Q.** With `COc1ccc(C(=O)N2CCCC(c3cc(C(=O)NCc4cccnc4)no3)C2)cc1` (centres undefined) as the molecule, how does the Potency read?
**A.** inconclusive [inhibitor, single point]

**Q.** With `CCCNC(=O)c1cccc(COc2ccccc2OC)c1` as the molecule, how does the Potency read?
**A.** inconclusive [inhibitor, single point]

**Q.** With `CCC(=O)Nc1nnc(S(=O)(=O)N2CCCc3ccccc32)s1` as the molecule, how does the “activity change, negative = growth inhibition” value read?
**A.** inactive: -17.1%

**Q.** With `COc1ccc(CCNC(=O)CCc2c(C)nc3c(c(C)nn3-c3ccc(C)cc3)c2C)c(OC)c1` as the molecule, how does the Potency read?
**A.** inconclusive [inhibitor, single point]

**Q.** With `CCc1ccccc1NC(=O)C1CCCN(S(=O)(=O)c2cccc3nsnc23)C1` (centres undefined) as the molecule, how does the Potency read?
**A.** inconclusive [inhibitor, single point]

**Q.** Which “activity change, negative = growth inhibition” value does the source give for `O=C(Nc1nnc(SCCN2CCOCC2)s1)C1CC(=O)N(c2ccccc2)C1` (centres undefined) here?
**A.** inactive: -3.52%

**Q.** For `Cc1cc(C)cc(NC(=S)NC2CC3CCCC(C2)N3C2CC2)c1` (centres undefined), which Potency is on record?
**A.** inconclusive [inhibitor, single point]
